Laboratory results from PubChem BioAssay AID504466 (National Center for Advancing Translational Sciences (NCATS), 2011).
In all, about 330,000 compounds went through this assay and about 4,200 (1.3%) were called active. Inconclusive results, whose numbers are uncertain, are shown with a selection of clear calls. Calls come from the whole dose curve; as a rule, active = well fitted activation curve with a large enough effect; inconclusive = small, poorly fitted or top-dose-only effect; inactive = no such curve, though single readings can be large or run the other way. Where the call is inconclusive, the potency comes from a doubtful curve fit.

Assay: qHTS screen for small molecules that induce genotoxicity in human embryonic kidney (HEK293T) cells expressing luciferase-tagged ELG1; note: nearly all actives have a fitted effect of over 60% in size
Details: HEK293T ELG1-luciferase reporter, luminescence, 16 h; series mostly up to 46 µM
Summary of the method: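 DMSO vehicle served as control against compound-treated ELG1-luciferase HEK293T cells; exposure lasted 16 hr at 37 °C and 5% CO2, followed by ONE-Glo luminescence detection after 30 min.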
Potency is the fitted concentration of half-maximal effect; tags give direction and shape of the fitted curve.

Row | Compound | Potency
1 | CN(Cc1nc(-c2cccs2)no1)CC1COCCO1 (stereo unspecified) | inconclusive: 18.3 µM [activator, partial curve, poor fit]
2 | Clc1cnc(N/N=C/c2ccco2)c(Cl)c1 | inconclusive: 1.84 µM [activator, partial curve]
3 | Cc1ccc2nsnc2c1NC(=O)COc1ccccc1 | inactive
4 | Cc1ccc2nc(C)c(C(=O)N/N=C/c3ccc(N4CCOCC4)cc3)cc2c1 | inconclusive: 20.6 µM [activator, single point]
5 | O=C(NCCCN1CCOCC1)c1cc(Cl)ccc1[N+](=O)[O-] | inactive
6 | O=C(/C=C\Nc1ccc(Cl)cn1)c1ccc(Br)cc1 | inconclusive: 3.26 µM [activator, full curve]
7 | CCCC(=O)NC(c1ccccc1Cl)c1ccc2cccnc2c1O (stereo unspecified) | inconclusive: 6.51 µM [activator, single point]
8 | NC(=O)COC(=O)/C=C/c1ccc2ccccc2n1 | inactive
9 | Cc1ccc(C(=O)NC(=S)NNC(=O)COc2ccc([N+](=O)[O-])cc2)cc1 | inconclusive: 5.8 µM [activator, single point]
10 | CC1CCCCN1CCCNC(=O)c1nn(C)c2c1CSc1ccccc1-2 (stereo unspecified) | inconclusive: 18.3 µM [activator, single point]
11 | Cc1cc(/C=N/NC(=O)c2cccc(N(C)C)c2)c(C)n1-c1cc(C(=O)O)cc(C(=O)O)c1 | inconclusive: 18.3 µM [activator, partial curve, poor fit]
12 | O=C(CN1C(=O)c2ccccc2S1(=O)=O)N1CCN(c2ccccc2F)CC1 | inactive
13 | Cc1ccc(-c2nc(CS(=O)CC(=O)NCc3ccco3)c(C)o2)cc1 (stereo unspecified) | inactive
14 | O=C(NCCCO)c1ccc2[nH]c3c(c2c1)CCCC3 | inconclusive: 25.9 µM [activator, single point]
15 | CCCc1cnc(N2CCN(C(=O)c3ccccc3)CC2)nc1 | inactive
16 | COc1ccc(C(NC(N)=O)c2ccccc2)cc1 (stereo unspecified) | inactive
17 | c1ccc(Cn2c(-c3ccco3)nc3nc4ccccc4nc32)cc1 | inconclusive: 5.17 µM [activator, partial curve, poor fit]
18 | O=C(Nc1cccc(O)c1)c1cccc(S(=O)(=O)N2CCCCCC2)c1 | inactive
19 | Cc1ccc(-c2cc(-c3ccc(F)cc3)n[nH]2)c(O)c1 | inconclusive: 1.83 µM [activator, full curve]
20 | Cc1ccccc1Cn1ccc(NC(=O)c2onc(C)c2Cl)n1 | inconclusive: 10.3 µM [activator, partial curve, poor fit]
21 | Oc1ccccc1-c1cc(-c2ccc(F)cc2)n[nH]1 | active: 5.8 µM
22 | COc1cccc(N2CCN(c3nc(-c4ccccc4C)cc(=O)[nH]3)CC2)c1 | inconclusive: 5.17 µM [activator, single point]
23 | Cn1c(C(=O)NCCCN2CCCCCC2)cc2c(=O)n(C)c3ccccc3c21 | inconclusive: 14.6 µM [activator, partial curve]
24 | CN1CCN(CCCOc2ccc(-c3ccccc3)cc2)CC1 | inconclusive: 23.1 µM [activator, single point]
25 | CCOC(=O)CSc1nc2ccccc2c(=O)n1CCN1CCOCC1 | inactive
26 | CCOC(=O)CSc1nc(C)c(C(C)=O)cc1C#N | inconclusive: 18.4 µM [activator, partial curve]

Row | Compound | Potency
27 | COc1ccccc1NC(=O)COc1ccc2c(c1)OCO2 | inconclusive: 11.6 µM [activator, partial curve]
28 | O=S(=O)(c1ccc(Cl)cc1)N1CCN(c2ccc(N3CCOCC3)nn2)CC1 | inactive
29 | CN(CC(=O)Nc1ccccc1Cl)C(=O)COC(=O)c1ccc(Cl)cc1[N+](=O)[O-] | inactive
30 | CCC(=O)Nc1cccc(-c2cc3ccccc3oc2=O)c1 | inconclusive: 16.4 µM [activator, partial curve]
31 | CC(C)OC(=O)c1cc2c(=O)[nH]c(C(Cl)(Cl)Cl)nc2o1 | inactive
32 | CC(=O)N1CCN(C(=O)c2ccc3c(c2)OCCO3)CC1 | inactive
33 | O=C(N/N=C/c1ccc([N+](=O)[O-])o1)c1cc(-c2ccc(-c3ccccc3)cc2)nc2ccccc12 | inconclusive: 1.83 µM [activator, partial curve]
34 | COc1ccc(Cn2c(=O)sc3ccccc32)cc1OC | inconclusive: 29.1 µM [activator, single point]
35 | CCNc1c(NC(=O)c2cccs2)c(=O)oc2ccccc12 | inactive
36 | COc1cc(S(=O)(=O)Nc2cccc(C)c2)ccc1NC(=O)c1cccnc1 | inactive
37 | CCOC(=O)c1[nH]c(C)c(C(=O)NCCC2=CCCCC2)c1C | inconclusive: 23.1 µM [activator, partial curve, poor fit]
38 | O=C1CSC2(N1)C1CC3CC(C1)CC2C3 (stereo unspecified) | inactive
39 | Cc1ccc2c(c1)COc1c3ccc(C(=O)N[C@@H](CO)C(C)C)cc3nn1-2 | inconclusive: 2.06 µM [activator, full curve, poor fit]
40 | CC(C)(C)c1ccc(-c2csc(NNC3=NCCCCC3)n2)cc1 | inconclusive: 8.2 µM [activator, partial curve, poor fit]
41 | CC(=O)OCCN1CCN(C(=O)CN2C(=O)NC(c3ccccc3)(c3ccccc3)C2=O)CC1 | inactive
42 | Cn1cc(C(=O)c2ccc(F)cc2)cc1-c1nc2ccccc2n1C | inactive
43 | O=C(CSc1nccc(=O)[nH]1)Nc1ccc2c(c1)OCCO2 | active: 14.6 µM
44 | O=C(NCCSc1ncc(-c2ccccc2)[nH]1)c1ccco1 | inconclusive: 20.6 µM [activator, single point]
45 | Nc1cnc(Nc2ccc(Br)cc2)nc1N | inconclusive: 18.3 µM [activator, single point]
46 | COc1ccc(CNc2ncnc(N)n2)cc1 | inactive
47 | Nc1ccc(Cc2nc3cc4ccccc4cc3[nH]2)cc1 | inactive
48 | C/C(=N\NC(=O)C1CC1)c1ccc(C)c(C)c1 | inconclusive: 23.1 µM [activator, partial curve, poor fit]
49 | CN(C)CCCNS(=O)(=O)c1ccc(N2CCC(c3ccc(Cl)cc3)=N2)cc1 | inconclusive: 18.4 µM [activator, single point]
50 | COc1cccc2cc(C(N)=O)/c(=N\NC(=O)c3ccccc3)oc12 | inconclusive: 3.66 µM [activator, full curve, poor fit]
51 | Cc1ccn2c(c1)nc(=S)n2C(=O)c1ccccc1 | inconclusive: 0.517 µM [activator, full curve]
52 | CC(CN1CCOCC1)OC(=O)c1ccc2c(c1)OCCO2 (stereo unspecified) | inconclusive: 14.6 µM [activator, single point]

Row | Compound | Potency
53 | Cc1ccc(Nc2nc(N)nc(CN3CCN(C)CC3)n2)cc1 | inconclusive: 12.6 µM [activator, single point]
54 | c1ccc2oc(NC3=NCN(C4CCCCC4)CN3)nc2c1 | inconclusive: 2.59 µM [activator, full curve, poor fit]
55 | CCOc1ccc(-c2cc(N3C(=O)Nc4ccccc4N3O)on2)cc1 | inactive
56 | Cc1ccc(OCCn2nnc3ccccc32)cc1C | inconclusive: 5.8 µM [activator, single point]
57 | FC(F)(F)c1cccc(CNC2CCN(Cc3ccccc3)CC2)c1 | inconclusive: 1.03 µM [activator, partial curve, poor fit]
58 | COc1cccc(CNC(=O)C2CCN(S(=O)(=O)N3CCC(C)CC3)CC2)c1 | inactive
59 | COc1cc(/C=N/Nc2ccccc2)ccc1O | inconclusive: 23.1 µM [activator, single point]
60 | c1ccc(-c2ccc(-c3nc(-c4ccccn4)no3)cc2)cc1 | inconclusive: 0.0058 µM [activator, full curve, poor fit]
61 | CC(OC(=O)c1ccc2c(=O)n3c(nc2c1)CCC3)C(N)=O (stereo unspecified) | inactive
62 | COc1ccccc1NC(=O)CS(=O)(=O)c1cn(CC(=O)N2CCCC2)c2ccccc12 | inactive
63 | Cc1cc(C(=O)Nc2ccc(N3CCOCC3)c(Cl)c2)c(C)o1 | inconclusive: 7.3 µM [activator, partial curve, poor fit]
64 | O=C(CNc1cccc(F)c1)N1CCc2ccccc2C1 | inconclusive: 16.4 µM [activator, partial curve]
65 | Cc1ccsc1C(=O)N/N=C/c1ccc([N+](=O)[O-])cc1 | inconclusive: 10.3 µM [activator, partial curve]
66 | c1ccc2sc(NN=C3CCCCCC3)nc2c1 | active: 0.461 µM
67 | COc1ccc(NC(=O)C2CC(=O)N/C(=N/N=C/c3ccccc3)S2)cc1 (stereo unspecified) | inconclusive: 10.3 µM [activator, partial curve, poor fit]
68 | Cc1ccc(CS/C(Nc2ccccc2C)=C(\C#N)C(N)=O)c(C)c1 | inactive
69 | CSc1cccc(NC(=O)Cc2ccccc2[N+](=O)[O-])c1 | inactive
70 | COc1cccc2oc(-c3ccco3)cc(=O)c12 | inconclusive: 29.1 µM [activator, single point]
71 | Cc1csc(NC(=O)CSc2nnc(-c3ccccc3)o2)n1 | active: 5.01 µM
72 | COc1ccc(-c2nc(N=Nc3ccc(O)cc3)n[nH]2)cc1 | inactive
73 | Oc1ccc(/C=N/Nc2ccc(C(F)(F)F)cn2)c(O)c1 | inconclusive: 20.6 µM [activator, partial curve]
74 | O=C(Nc1nccs1)c1ccc2c(c1)OCO2 | inconclusive: 3.26 µM [activator, partial curve]
75 | O=[N+]([O-])c1nn(-c2ccc3c(c2)OCCO3)n(O)c1=NCc1ccccc1Cl | inconclusive: 5.8 µM [activator, full curve]
76 | O=C(CCCOc1ccccc1)N1CCN(c2ccc(F)cc2)CC1 | inconclusive: 13 µM [activator, partial curve]
